From PMC7979705
Like-named read-outs stand apart in the source and are kept apart here. No constants are given. Whether binding was seen depends on the method and setting. In cells and extracts the contact can be indirect. Some entries that bind do so weakly or less than the wild type. For part of these data: Where a sequence is shown, tags or fusion partners need not be part of it. Blank lines part the entries; values can stand above or below the molecule they belong to.

By UniProt entry, the sequences of proteins in these tests, tags left out. Where a name states a change or a piece, a line headed by the entry shows the natural chain unless it says otherwise. Residues count along the entry.
UniProt Q09472: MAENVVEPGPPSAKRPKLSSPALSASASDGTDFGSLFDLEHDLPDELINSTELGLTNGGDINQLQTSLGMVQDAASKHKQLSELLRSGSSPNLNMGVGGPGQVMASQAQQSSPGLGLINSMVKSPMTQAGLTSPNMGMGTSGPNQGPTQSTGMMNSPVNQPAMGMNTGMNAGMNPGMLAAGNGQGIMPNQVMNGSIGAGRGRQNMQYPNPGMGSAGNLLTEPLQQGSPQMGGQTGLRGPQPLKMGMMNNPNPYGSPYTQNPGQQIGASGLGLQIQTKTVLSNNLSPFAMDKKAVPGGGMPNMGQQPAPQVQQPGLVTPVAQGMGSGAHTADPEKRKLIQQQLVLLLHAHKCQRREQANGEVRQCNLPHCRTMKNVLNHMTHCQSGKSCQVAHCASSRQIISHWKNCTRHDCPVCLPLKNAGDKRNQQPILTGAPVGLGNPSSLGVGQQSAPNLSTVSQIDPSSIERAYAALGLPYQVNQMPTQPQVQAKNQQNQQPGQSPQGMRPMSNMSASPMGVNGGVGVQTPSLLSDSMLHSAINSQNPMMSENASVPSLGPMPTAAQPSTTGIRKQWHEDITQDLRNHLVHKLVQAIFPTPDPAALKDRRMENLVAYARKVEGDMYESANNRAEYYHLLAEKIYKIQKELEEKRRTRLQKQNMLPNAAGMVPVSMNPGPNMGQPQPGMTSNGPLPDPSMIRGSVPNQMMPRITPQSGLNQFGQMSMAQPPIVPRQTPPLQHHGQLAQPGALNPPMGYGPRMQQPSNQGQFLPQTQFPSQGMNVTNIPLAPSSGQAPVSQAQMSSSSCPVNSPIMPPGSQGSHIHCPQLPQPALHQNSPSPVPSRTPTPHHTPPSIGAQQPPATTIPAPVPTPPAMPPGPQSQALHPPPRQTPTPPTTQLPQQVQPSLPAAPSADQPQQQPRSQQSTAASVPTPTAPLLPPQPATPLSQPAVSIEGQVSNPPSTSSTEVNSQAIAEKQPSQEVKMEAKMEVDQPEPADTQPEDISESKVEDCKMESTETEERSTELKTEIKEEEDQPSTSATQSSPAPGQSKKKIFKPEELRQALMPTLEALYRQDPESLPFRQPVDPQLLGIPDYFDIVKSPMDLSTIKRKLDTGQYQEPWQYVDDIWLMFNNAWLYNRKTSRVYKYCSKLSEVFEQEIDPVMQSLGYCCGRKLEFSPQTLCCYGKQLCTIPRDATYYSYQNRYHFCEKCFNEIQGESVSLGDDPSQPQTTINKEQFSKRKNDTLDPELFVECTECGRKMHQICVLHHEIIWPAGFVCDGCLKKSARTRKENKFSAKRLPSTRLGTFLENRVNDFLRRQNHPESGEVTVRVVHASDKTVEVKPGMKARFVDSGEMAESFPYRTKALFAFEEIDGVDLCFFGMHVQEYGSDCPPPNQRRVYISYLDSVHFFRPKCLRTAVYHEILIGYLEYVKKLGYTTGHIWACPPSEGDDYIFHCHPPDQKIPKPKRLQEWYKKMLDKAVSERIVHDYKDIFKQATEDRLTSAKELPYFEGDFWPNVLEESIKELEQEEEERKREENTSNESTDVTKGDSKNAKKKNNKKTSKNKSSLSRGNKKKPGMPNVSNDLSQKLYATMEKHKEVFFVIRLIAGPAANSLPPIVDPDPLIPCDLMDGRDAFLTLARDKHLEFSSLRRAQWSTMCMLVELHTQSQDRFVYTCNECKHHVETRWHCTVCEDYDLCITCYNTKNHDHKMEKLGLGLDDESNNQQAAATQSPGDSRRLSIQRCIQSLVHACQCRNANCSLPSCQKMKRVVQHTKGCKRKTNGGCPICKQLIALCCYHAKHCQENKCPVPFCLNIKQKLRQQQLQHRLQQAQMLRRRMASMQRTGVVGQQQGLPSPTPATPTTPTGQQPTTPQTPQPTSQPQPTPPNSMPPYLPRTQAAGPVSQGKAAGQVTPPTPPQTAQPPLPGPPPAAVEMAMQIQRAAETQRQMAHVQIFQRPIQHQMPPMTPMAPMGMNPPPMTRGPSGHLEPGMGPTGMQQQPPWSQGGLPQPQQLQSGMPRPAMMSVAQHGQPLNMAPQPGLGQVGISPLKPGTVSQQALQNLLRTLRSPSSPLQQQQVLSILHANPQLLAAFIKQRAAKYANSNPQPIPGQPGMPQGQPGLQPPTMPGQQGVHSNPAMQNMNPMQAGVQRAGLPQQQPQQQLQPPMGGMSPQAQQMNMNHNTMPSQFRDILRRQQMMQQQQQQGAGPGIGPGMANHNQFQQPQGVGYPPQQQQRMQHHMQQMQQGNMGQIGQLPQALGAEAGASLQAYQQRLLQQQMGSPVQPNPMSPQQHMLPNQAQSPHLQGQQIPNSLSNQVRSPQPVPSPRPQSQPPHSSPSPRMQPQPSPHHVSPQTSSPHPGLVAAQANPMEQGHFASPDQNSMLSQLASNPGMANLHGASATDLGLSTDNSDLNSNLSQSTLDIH
UniProt Q8N6T7: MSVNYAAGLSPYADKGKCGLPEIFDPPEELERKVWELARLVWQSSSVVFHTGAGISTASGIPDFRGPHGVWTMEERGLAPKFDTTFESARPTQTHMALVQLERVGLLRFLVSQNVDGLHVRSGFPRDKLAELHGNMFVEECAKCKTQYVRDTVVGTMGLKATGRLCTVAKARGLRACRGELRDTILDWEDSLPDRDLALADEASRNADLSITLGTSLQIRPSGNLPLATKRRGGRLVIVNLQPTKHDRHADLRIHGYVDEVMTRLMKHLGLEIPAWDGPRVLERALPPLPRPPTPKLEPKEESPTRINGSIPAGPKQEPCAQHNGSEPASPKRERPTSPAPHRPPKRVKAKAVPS
UniProt Q9NRC8: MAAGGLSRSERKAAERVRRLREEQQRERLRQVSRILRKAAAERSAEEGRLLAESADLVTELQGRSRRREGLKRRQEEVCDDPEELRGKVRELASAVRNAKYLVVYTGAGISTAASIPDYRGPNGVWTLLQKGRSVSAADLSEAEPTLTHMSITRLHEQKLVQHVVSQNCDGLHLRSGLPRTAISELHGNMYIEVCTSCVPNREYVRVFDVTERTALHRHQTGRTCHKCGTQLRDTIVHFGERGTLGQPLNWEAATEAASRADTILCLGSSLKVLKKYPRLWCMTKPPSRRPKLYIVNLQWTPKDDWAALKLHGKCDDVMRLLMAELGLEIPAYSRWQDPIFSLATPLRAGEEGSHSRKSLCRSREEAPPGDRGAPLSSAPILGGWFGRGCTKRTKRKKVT
UniProt Q9NXA8, residues 37-310: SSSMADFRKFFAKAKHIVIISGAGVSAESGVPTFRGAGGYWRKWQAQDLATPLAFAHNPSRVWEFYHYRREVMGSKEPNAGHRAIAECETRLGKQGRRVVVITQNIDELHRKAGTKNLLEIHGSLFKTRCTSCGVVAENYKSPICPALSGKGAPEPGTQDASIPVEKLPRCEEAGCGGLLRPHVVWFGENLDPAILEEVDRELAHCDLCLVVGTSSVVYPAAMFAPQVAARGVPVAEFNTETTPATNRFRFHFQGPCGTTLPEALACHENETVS
UniProt Q96EB6: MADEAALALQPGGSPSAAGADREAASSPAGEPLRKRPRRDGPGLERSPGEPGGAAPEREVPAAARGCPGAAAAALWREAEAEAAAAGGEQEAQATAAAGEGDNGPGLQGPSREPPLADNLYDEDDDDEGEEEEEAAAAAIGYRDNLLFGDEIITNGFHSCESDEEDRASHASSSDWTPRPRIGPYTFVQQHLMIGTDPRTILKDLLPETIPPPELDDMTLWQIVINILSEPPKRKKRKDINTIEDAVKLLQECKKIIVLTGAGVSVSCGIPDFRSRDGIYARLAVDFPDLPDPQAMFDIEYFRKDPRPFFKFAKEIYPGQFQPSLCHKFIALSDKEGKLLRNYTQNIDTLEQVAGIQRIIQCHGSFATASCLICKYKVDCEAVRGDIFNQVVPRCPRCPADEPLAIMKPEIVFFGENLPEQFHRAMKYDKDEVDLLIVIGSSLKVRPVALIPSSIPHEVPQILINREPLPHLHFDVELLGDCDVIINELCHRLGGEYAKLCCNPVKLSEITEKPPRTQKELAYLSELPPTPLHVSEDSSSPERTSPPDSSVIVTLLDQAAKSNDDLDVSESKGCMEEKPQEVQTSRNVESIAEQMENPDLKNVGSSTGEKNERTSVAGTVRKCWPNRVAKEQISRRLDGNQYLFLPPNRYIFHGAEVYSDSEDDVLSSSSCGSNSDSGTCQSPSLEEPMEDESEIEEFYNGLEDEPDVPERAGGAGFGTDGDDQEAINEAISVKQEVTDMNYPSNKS
UniProt P35222: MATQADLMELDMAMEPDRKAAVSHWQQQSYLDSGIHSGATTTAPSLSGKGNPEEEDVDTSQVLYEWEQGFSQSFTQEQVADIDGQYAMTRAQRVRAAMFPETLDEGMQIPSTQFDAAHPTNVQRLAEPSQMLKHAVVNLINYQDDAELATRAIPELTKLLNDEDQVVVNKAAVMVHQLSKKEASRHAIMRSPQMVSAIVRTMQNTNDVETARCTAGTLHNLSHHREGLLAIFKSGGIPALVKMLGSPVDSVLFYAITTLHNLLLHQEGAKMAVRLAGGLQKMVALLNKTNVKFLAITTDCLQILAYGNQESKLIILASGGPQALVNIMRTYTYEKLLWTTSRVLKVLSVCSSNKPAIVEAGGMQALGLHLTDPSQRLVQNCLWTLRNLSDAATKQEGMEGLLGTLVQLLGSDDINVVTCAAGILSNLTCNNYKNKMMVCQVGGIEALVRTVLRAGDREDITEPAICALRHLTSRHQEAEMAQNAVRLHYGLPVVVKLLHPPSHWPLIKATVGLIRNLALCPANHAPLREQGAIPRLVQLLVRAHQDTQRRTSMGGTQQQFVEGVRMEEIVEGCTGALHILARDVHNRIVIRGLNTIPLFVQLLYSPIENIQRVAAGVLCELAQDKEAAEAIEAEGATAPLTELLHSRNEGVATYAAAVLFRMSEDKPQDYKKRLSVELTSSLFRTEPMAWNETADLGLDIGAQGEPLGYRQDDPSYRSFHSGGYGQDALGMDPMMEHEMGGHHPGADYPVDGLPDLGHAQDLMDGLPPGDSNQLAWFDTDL
UniProt P40763: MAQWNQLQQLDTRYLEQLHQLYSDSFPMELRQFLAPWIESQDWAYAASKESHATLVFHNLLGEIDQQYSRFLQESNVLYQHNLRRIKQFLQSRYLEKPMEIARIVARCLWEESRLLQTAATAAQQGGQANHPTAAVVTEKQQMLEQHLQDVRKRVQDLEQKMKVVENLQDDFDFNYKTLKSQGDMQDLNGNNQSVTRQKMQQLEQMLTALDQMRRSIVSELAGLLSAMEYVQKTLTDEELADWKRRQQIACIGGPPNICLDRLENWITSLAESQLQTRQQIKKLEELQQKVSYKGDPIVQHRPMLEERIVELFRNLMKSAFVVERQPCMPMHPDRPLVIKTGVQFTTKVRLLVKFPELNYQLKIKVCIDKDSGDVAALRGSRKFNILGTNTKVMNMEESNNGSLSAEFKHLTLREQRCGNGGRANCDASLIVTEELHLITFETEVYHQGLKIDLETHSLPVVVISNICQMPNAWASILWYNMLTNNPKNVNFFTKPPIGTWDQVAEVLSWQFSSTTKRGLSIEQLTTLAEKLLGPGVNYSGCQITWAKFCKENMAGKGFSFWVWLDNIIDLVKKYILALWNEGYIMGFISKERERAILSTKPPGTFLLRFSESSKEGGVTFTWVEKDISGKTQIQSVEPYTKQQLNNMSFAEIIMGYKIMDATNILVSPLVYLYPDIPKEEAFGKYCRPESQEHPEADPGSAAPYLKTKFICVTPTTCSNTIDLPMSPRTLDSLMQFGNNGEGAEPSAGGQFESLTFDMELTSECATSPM

Legend:
[1] = biological target: T1, Flag-Myc-ELF5 (isoform 2) (UniProt Q9UKW6); experiment: co-IP; HEK293T co-transfected with tagged ELF5 and tagged sirtuins; precipitation with anti-Flag affinity gel; immunoblot
T1 sequence: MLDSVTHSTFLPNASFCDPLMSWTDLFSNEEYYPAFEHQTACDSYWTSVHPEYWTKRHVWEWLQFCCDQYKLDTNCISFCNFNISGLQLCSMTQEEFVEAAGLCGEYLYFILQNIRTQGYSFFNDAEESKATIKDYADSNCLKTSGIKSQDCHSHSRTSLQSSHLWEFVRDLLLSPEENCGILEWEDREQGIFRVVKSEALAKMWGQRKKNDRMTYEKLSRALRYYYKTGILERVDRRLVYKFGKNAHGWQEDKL

GST-ELF5 fusion protein = biological target: T2, GST-ELF5 fusion protein (UniProt Q9UKW6); experiment: pull-down; purified GST or GST-ELF5 immobilised on the Pierce Spin Column, incubated with lysate of HEK293T cells overexpressing p300 or SIRT6; only the target purified
T2 sequence: T1 sequence

[2] = biological target: p300 (endogenous) (human (endogenous in T47D and MCF7)) (UniProt Q09472); experiment: co-IP; endogenous proteins, T47D whole-cell lysate in TNE lysis buffer; antibody (anti-p300, anti-ELF5 or anti-SIRT6) or normal IgG overnight at 4 °C, Protein A/G magnetic beads; immunoblot
[3] = biological target: T3, E74-like ETS transcription factor 5 (ELF5), endogenous (human (endogenous in T47D and MCF7)) (UniProt Q9UKW6); experiment: as above
T3 sequence: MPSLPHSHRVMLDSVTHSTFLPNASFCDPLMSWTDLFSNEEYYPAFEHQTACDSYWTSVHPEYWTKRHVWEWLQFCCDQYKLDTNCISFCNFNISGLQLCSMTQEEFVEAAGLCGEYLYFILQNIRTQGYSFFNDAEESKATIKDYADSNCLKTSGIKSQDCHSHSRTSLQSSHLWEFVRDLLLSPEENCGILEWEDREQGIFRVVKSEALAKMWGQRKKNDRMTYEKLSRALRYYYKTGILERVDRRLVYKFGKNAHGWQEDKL

GFP-tagged ELF5 = biological target: T4, GFP-tagged ELF5 (UniProt Q9UKW6); experiment: co-IP; HEK293T co-transfected with GFP-tagged ELF5 and HA-tagged p300; precipitation with anti-GFP or anti-HA antibody; immunoblot
T4 sequence: T1 sequence

[4] = biological target: p300 (endogenous) (human (endogenous in T47D and MCF7)) (UniProt Q09472); experiment: co-IP; endogenous proteins, T47D whole-cell lysate in TNE lysis buffer; antibody (anti-p300, anti-ELF5 or anti-SIRT6) or normal IgG overnight at 4 °C, Protein A/G magnetic beads; immunoblot; remark: listed apart in the source
[5] = biological target: SIRT6 (endogenous) (human (endogenous in T47D)) (UniProt Q8N6T7); experiment: as above
Flag-SIRT7 = Flag-SIRT7 (UniProt Q9NRC8); experiment: co-IP; HEK293T co-transfected with tagged ELF5 and tagged sirtuins; precipitation with anti-Flag affinity gel; immunoblot
Flag-SIRT2 = biological target: T5, Flag-SIRT2 (UniProt Q8IXJ6); experiment: as above
T5 sequence: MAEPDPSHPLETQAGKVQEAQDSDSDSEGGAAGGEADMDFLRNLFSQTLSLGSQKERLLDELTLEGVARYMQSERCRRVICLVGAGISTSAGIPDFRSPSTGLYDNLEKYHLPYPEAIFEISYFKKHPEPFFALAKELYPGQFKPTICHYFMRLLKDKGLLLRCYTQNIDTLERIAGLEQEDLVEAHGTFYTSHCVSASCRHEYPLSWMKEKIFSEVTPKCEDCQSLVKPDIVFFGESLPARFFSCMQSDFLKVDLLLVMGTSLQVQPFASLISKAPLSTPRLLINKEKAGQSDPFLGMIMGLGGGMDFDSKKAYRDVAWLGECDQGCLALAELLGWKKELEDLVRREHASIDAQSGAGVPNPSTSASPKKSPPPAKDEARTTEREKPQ

Flag-SIRT6 = Flag-SIRT6 (UniProt Q8N6T7); experiment: as above
Flag-SIRT5 = Flag-SIRT5 (UniProt Q9NXA8); experiment: as above
Flag-SIRT4 = biological target: T6, Flag-SIRT4 (UniProt Q9Y6E7); experiment: as above
T6 sequence: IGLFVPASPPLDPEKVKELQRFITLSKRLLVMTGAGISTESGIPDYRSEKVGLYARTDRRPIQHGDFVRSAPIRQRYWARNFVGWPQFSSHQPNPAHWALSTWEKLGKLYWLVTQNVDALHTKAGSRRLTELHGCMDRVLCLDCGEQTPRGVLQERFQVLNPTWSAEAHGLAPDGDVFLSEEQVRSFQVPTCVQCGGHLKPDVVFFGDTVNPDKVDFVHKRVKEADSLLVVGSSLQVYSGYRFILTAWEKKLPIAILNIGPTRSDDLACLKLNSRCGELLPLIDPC

Flag-SIRT1 = Flag-SIRT1 (UniProt Q96EB6); experiment: as above
HA-tagged p300 = HA-tagged p300 (UniProt Q09472); experiment: co-IP; HEK293T co-transfected with GFP-tagged ELF5 and HA-tagged p300; precipitation with anti-GFP or anti-HA antibody; immunoblot

binding [1]: binds
binding (GST-ELF5 fusion protein): binds
Molecule: GFP-SIRT6 (from UniProt Q8N6T7 1-355) (enzyme)

binding [2]: binds
Molecule: β-catenin (endogenous) (from UniProt P35222 1-781)

binding [3]: binds
Molecule: p300 (endogenous) (from UniProt Q09472 1-2414) (enzyme)

binding [2]: binds
Molecule: STAT3 (endogenous) (from UniProt P40763 1-770)

binding (GFP-tagged ELF5): binds
binding (GST-ELF5 fusion protein): binds
Molecule: HA-tagged p300 (from UniProt Q09472 1-2414) (enzyme)

binding [3]: binds
Molecule: SIRT6 (endogenous) (from UniProt Q8N6T7 1-355) (enzyme)

binding [1]: no binding
Molecule: GFP-SIRT6 catalytic mutant H133Y (from UniProt Q8N6T7 1-355) (enzyme)

binding [4]: binds
binding [5]: binds
B1: E74-like ETS transcription factor 5 (ELF5), endogenous (protein, UniProt Q9UKW6 1-265)
chain: T3 sequence

binding (Flag-SIRT7): no binding
binding (Flag-SIRT2): no binding
binding (Flag-SIRT6): binds
binding (Flag-SIRT5): no binding
binding (Flag-SIRT4): no binding
binding (Flag-SIRT1): no binding
B2: HA-tagged ELF5 (protein, UniProt Q9UKW6-2 1-255)
chain: T1 sequence

binding (HA-tagged p300): binds
B3: GFP-tagged ELF5 (protein, UniProt Q9UKW6-2 1-255)
chain: T1 sequence
